{
  "source": "PubChem BioAssay AID1347073",
  "about": "(National Center for Advancing Translational Sciences (NCATS), 2019)",
  "note": "Among all 45,000 compounds or so, about 200 (0.44%) were called active. About 7% were inconclusive and are not listed. The call rests on the fitted dose curve; in most records, active means well fitted activation curve with a large enough effect; inconclusive means small, poorly fitted or top-dose-only effect; inactive means no such curve, though single readings can be large or run the other way. This is one part of the list.",
  "data": [
    {"assay": "qHTS of TDP-43 Inhibitors: NCGC Sytravon Library Screen; further: 0% is about no effect; nearly all actives have a fitted effect of over 55% in size", "details": "yeast TDP-43 toxicity rescue, BacTiter-Glo growth, 24 h; series mostly up to 46.1 µM; growth rescue (activation): at the top concentration", "procedure,_shortened": "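TDP-43-expressing yeast, pregrown in raffinose, seeded at OD600 0.02 in galactose medium with compound for 24 hr at 30 deg C. Growth read by BacTiter-Glo luminescence, so rescue of toxicity appears as activation.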", "values": [
      {"smiles": "COc1ccc(-c2onc(C)c2-c2cnn(-c3ccccc3)c2)c(O)c1C", "growth rescue (activation)": "inactive: -1.63%"},
      {"smiles": "Cc1ccc(C)c(CN2CCC(CNC(=O)Nc3ccc(F)c(Cl)c3)CC2)c1", "growth rescue (activation)": "inactive: -16.1%"},
      {"smiles": "O=C(c1cc[n+]([O-])cc1)N1CCCC(N2CCN(c3cccc(C(F)(F)F)c3)CC2)C1", "note": "(stereo not drawn)", "growth rescue (activation)": "inactive: -38.2%"},
      {"smiles": "Cc1cc(NC(=O)CCC(=O)N(Cc2ccco2)C2(C(=O)NC3CCCCC3)CCCCC2)no1", "growth rescue (activation)": "inactive: -4.97%"},
      {"smiles": "COC(=O)c1ccc(NC(=S)Nc2cccc(C)n2)cc1", "growth rescue (activation)": "inactive: 22.3%"},
      {"smiles": "COCCC(=O)Nc1ccc2c(c1)CN(C(=O)CCOC)CC2", "growth rescue (activation)": "inactive: 6.78%"},
      {"smiles": "COc1cc(/C=C/C2=CC(C)(C)NC(=S)N2)cc(OC)c1OC", "growth rescue (activation)": "inactive: 9.14%"},
      {"smiles": "CC(=O)c1c(C)[nH]c(C(=O)Nc2ccc(Cl)cc2F)c1C", "growth rescue (activation)": "inactive: 2.83%"},
      {"smiles": "O=C(Cn1nc(-c2ccccc2)ccc1=O)Nc1ccc(-n2cnnn2)cc1", "growth rescue (activation)": "inactive: 21.9%"},
      {"smiles": "CCNC(=O)C1(C)CCCN(C(=O)c2cc(C)n(C(C)(C)C)n2)C1", "note": "(stereo not drawn)", "growth rescue (activation)": "inactive: -7.03%"},
      {"smiles": "CC(C)CNC(=O)c1cccc2c(-c3ccc(F)c(F)c3)coc12", "growth rescue (activation)": "inactive: 20.7%"},
      {"smiles": "CS(=O)(=O)N(CC(=O)N1CCN(Cc2ccccc2)CC1)c1ccccc1F", "growth rescue (activation)": "inactive: -24.9%"},
      {"smiles": "COCCn1c(=O)[nH]c2cc(C(=O)N3CCN(c4cccc(C(F)(F)F)c4)CC3)ccc2c1=O", "growth rescue (activation)": "inactive: 13.7%"},
      {"smiles": "Cc1ccc(C(=O)NCCCCNC(=O)c2ccc(C)o2)o1", "growth rescue (activation)": "inactive: 16.8%"},
      {"smiles": "CN(C)c1cccc(C(=O)Nc2nnc(Cc3ccccc3)s2)c1", "growth rescue (activation)": "inactive: 23.5%"},
      {"smiles": "COc1ccc(-n2nc(C(=O)NCC(=O)N3CCOCC3)c3ccccc3c2=O)c(OC)c1", "growth rescue (activation)": "inactive: 1.32%"},
      {"smiles": "NC(=NCc1ccco1)NC(=O)c1ccc(Cl)cc1", "growth rescue (activation)": "inactive: 8.91%"},
      {"smiles": "CCOC(=O)c1ccc2ncc(C(=O)OCC)c(NCc3ccco3)c2c1", "growth rescue (activation)": "inactive: 28.8%"},
      {"smiles": "O=C(/C=C/c1ccc([N+](=O)[O-])cc1)NCc1cccs1", "growth rescue (activation)": "inactive: -24.9%"},
      {"smiles": "CCC1=NC(c2ccc(Br)cc2)N(O)C1(C)C", "note": "(stereo not drawn)", "growth rescue (activation)": "inactive: -4.35%"},
      {"smiles": "O=C1CCC(C(=O)OCC(=O)N2N=C3/C(=C\\c4ccccc4)CCCC3C2c2ccccc2)N1", "note": "(stereo not drawn)", "growth rescue (activation)": "inactive: 24.6%"},
      {"smiles": "S=c1nc(-c2ccc(Cl)cc2)[nH][nH]1", "growth rescue (activation)": "inactive: 8.14%"},
      {"smiles": "CCOC(=O)c1ccccc1NC(=O)COC(=O)CCNS(=O)(=O)c1cccs1", "growth rescue (activation)": "inactive: 8.74%"},
      {"smiles": "Cc1ccc(C2=CC(c3cccs3)n3nnnc3N2)cc1", "note": "(stereo not drawn)", "growth rescue (activation)": "inactive: 13%"},
      {"smiles": "CC(=O)N1CC(=O)N(CC(=O)Nc2ccc(Br)cc2)C1=S", "growth rescue (activation)": "inactive: -8.16%"},
      {"smiles": "COc1ccccc1CNc1nc2ccc(Cl)cc2n2cnnc12", "growth rescue (activation)": "inactive: 11.2%"},
      {"smiles": "CCC(NC(=O)c1cc(COc2cncc(Cl)c2)on1)c1ccc(C)cc1", "note": "(stereo not drawn)", "growth rescue (activation)": "inactive: 37.8%"},
      {"smiles": "COc1ccc(CCNS(=O)(=O)c2cccc([N+](=O)[O-])c2)cc1", "growth rescue (activation)": "inactive: 22.8%"},
      {"smiles": "O=C(CSc1nc(-c2ccccc2)cs1)Nc1cccc([N+](=O)[O-])c1", "growth rescue (activation)": "inactive: 2.34%"},
      {"smiles": "O=C(NC(=S)Nc1ccccc1OC(F)F)c1ccc2c(c1)OCO2", "growth rescue (activation)": "inactive: 24.2%"},
      {"smiles": "CN=C1S/C(=C\\c2c(OC)cc(OC)cc2OC)C(=O)N1C", "growth rescue (activation)": "inactive: 11.5%"},
      {"smiles": "Cc1onc(-c2c(Cl)cccc2Cl)c1C(=O)Nc1nccs1", "growth rescue (activation)": "inactive: 13.4%"},
      {"smiles": "CCN(CC)S(=O)(=O)c1ccc(N2CCCC2)c(NC(=O)c2ccc([N+](=O)[O-])o2)c1", "growth rescue (activation)": "inactive: 18%"},
      {"smiles": "CCCOC(=O)c1ccc(S(N)(=O)=O)o1", "growth rescue (activation)": "inactive: 3.92%"},
      {"smiles": "Cn1cc(CN2CCCC(C(=O)c3cccs3)C2)c(-c2cccc(Cl)c2)n1", "note": "(stereo not drawn)", "growth rescue (activation)": "inactive: 5.06%"},
      {"smiles": "COC(=O)c1c(NC(=O)CN2C(=O)NC(CCc3ccccc3)C2=O)sc2c1CCCCC2", "note": "(stereo not drawn)", "growth rescue (activation)": "inactive: -21.8%"},
      {"smiles": "OCC1(Cc2ccccc2)CCCN(Cc2cnn(-c3ccccc3)c2)C1", "note": "(stereo not drawn)", "growth rescue (activation)": "inactive: -0.691%"},
      {"smiles": "CC(NC(=O)CN(C)Cc1cccs1)c1ccccc1", "note": "(stereo not drawn)", "growth rescue (activation)": "inactive: -6.58%"},
      {"smiles": "CCOc1ccc(N(C)c2ccc(/C=C3/SC(=S)NC3=O)cc2)cc1", "growth rescue (activation)": "inactive: -6.3%"},
      {"smiles": "COc1ccc(-c2nc(N)sc2C2(O)C(=O)Nc3c(Br)cc(F)cc32)cc1OC", "note": "(stereo not drawn)", "growth rescue (activation)": "inactive: 19.9%"},
      {"smiles": "O=C(Cn1nnc(-c2cc(Cl)ccc2-n2cnnn2)n1)N1CCCc2ccccc21", "growth rescue (activation)": "inactive: -10.7%"},
      {"smiles": "O=C(CNC(=O)c1ccccc1F)NC1CCN(Cc2ccccc2)CC1", "growth rescue (activation)": "inactive: -2.3%"},
      {"smiles": "COc1ccc(/C=C/CN2CCN(Cc3ccc(F)cc3)C(CCO)C2)cc1", "note": "(stereo not drawn)", "growth rescue (activation)": "inactive: -11%"},
      {"smiles": "CCOc1ccc(C2C(C#N)=C(N)Oc3cc(C)[nH]c(=O)c32)cc1OC", "note": "(stereo not drawn)", "growth rescue (activation)": "inactive: 1.11%"},
      {"smiles": "O=C(COc1ccc(Br)cc1)NCc1cn2ccccc2n1", "growth rescue (activation)": "inactive: 26.8%"},
      {"smiles": "O=C(CCC1CCCN(C(=O)c2cc(C3CC3)[nH]n2)C1)N1CCN(c2ccccn2)CC1", "note": "(stereo not drawn)", "growth rescue (activation)": "inactive: 1.64%"},
      {"smiles": "Cc1ccc(C)c(NC(=O)CSc2nnc(C3CCCCC3)o2)c1", "growth rescue (activation)": "inactive: 8.97%"},
      {"smiles": "COCCNC(=O)c1ccc(C(=O)C(=O)c2ccccc2)cc1", "growth rescue (activation)": "inactive: 13.4%"},
      {"smiles": "Cc1ccc(/C=N/Nc2nncn2N)cc1", "growth rescue (activation)": "inactive: 9.63%"},
      {"smiles": "Cn1c(=O)n(CC(N)=O)c2ccccc21", "growth rescue (activation)": "inactive: 6.45%"},
      {"smiles": "Cn1c(SCC(=O)N/N=C/C=C/c2ccco2)nc2ccccc21", "growth rescue (activation)": "inactive: 6.23%"},
      {"smiles": "Cc1ccc(CC2C(=O)N(c3ccc(C)cc3)C(=O)C2C)cc1", "note": "(stereo not drawn)", "growth rescue (activation)": "inactive: 17.2%"},
      {"smiles": "Fc1cccc(Nc2nc(-c3ccncc3)nc3ccccc23)c1", "growth rescue (activation)": "inactive: 18.9%"}
    ]}
  ]
}
